Reference: PubChem BioAssay AID493208 (National Center for Advancing Translational Sciences (NCATS), 2011)
Out of some 44,000 compounds screened, about 340 (0.77%) were called active. Roughly 5% stayed inconclusive and do not appear here. The call rests on the fitted dose curve; in most records, active means well fitted inhibition curve with a large enough effect; inconclusive means small, poorly fitted or top-dose-only effect; inactive means flat fitted curve, though single readings scatter. The list shows a part of the results.

assay: Acumen qHTS Assay for Inhibitors of the mTORC1 Signaling Pathway in MEF (Tsc2-/-, p53-/-) Cells: Sytravon; settings: phospho-rpS6 immunofluorescence/PI, 24 h; series mostly up to 38.3 µM; activity change, negative = inhibition: at the top concentration;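 further: plate controls were DMSO for no effect and rapamycin for full effect; nearly all actives have a fitted effect of over 50% in size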
Outline: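 Readout is phospho-S6 Alexa 488 signal normalized to PI per well, reported as % active cells with thresholds set from rapamycin (7.5 nM) and DMSO controls. Cells: Tsc2-/-, p53-/- MEFs, 24 hrs compound at 37 C; PI cell number serves as viability.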

Activity change, negative = inhibition, inactive:
CCOC(=O)C1CCN(S(=O)(=O)c2cc(Br)cc3c2N(C(=O)CC)CC3)CC1 -2.45%
CCCC(=O)NCC1(N(C)C)CCCCC1 -1.21%
COc1ccc(NC(=O)C(=O)NCCc2csc(-c3ccc(Cl)cc3)n2)cc1OC 0.473%
COc1ccc(-c2nc3scc(CCNS(=O)(=O)c4ccc(C)cc4)n3n2)cc1 4.64%
CCOc1cc2sc(N3CCC(C(=O)Nc4ccc(C)cc4C)CC3)nc2cc1Br -8.23%
COc1ccccc1NC(=O)C(=O)NCC(c1ccc2c(c1)OCO2)N1CCN(C)CC1 (centres undefined) -6.38%
CCN1CCN(c2ncc3c(n2)CCN(Cc2cc(F)cc(F)c2)C3)CC1 1.2%
COc1ccc(S(=O)(=O)N(CC(=O)Nc2ccccc2Br)Cc2ccccc2)cc1 -4.75%
Cn1c(=NC(=O)c2ccc(S(=O)(=O)N3CCCc4ccccc43)cc2)sc2cc(F)ccc21 18.1%
CC(C)OCCCn1c(=O)c2ccccc2n2c(-c3ccc(F)cc3)nnc12 0%
Cc1cccc(C(=O)Nc2c(-c3ccccc3)nc3cc(C)ccn23)c1 7.39%
COC(=O)c1ccc(NC(=O)CSc2nc(=O)[nH]c3c2CCCC3)cc1 -7.41%
CCOC(=O)COc1ccc([N+](=O)[O-])cc1-c1ccnc2cc(-c3ccc(Cl)cc3)nn12 -14.8%
CCc1ccc(CN(Cc2ccco2)c2cnc(S(C)(=O)=O)nc2C(=O)Nc2cccc(C)c2)cc1 -4.86%
CN(C)c1ccc(C(CNC(=O)c2ccccc2)N2CCc3ccccc32)cc1 (centres undefined) 0%
CC(C)CC(=O)Nc1cccc(-c2nc3ccccc3[nH]2)c1 -2.25%
Cc1cccc(-c2noc(-c3ccccc3OCC(=O)Nc3ccc([N+](=O)[O-])cc3)n2)c1 0.537%
COc1ccccc1CNc1nc(-c2ccco2)nn1S(=O)(=O)c1ccc2ccccc2c1 -5.23%
Cc1ccccc1C(=O)Nc1sc2c(c1C(=O)NCc1ccco1)CCC(C(C)(C)C)C2 (centres undefined) -0.189%
COCCCNC(=O)c1oc2c(c1C)-c1nn(Cc3ccccc3Cl)cc1CC2 0.0257%
CNC(=O)C1CCC(Cn2c(=O)c3sccc3n(CC(=O)NCc3ccccc3)c2=O)CC1 (centres undefined) 3.97%
Cc1ccc(SCCNC(=O)CN(c2ccccc2)S(=O)(=O)N(C)C)cc1 -4.21%
CCOc1cc(C(=O)OCc2cc(=O)n3nc(CC)sc3n2)cc(OCC)c1OCC 14.7%
CCC(=O)N1CCc2cc(Br)cc(S(=O)(=O)N3CCCC(C(=O)Nc4ccc(C(C)C)cc4)C3)c21 (centres undefined) 0.238%
CC1CCC(C(=O)NC(C(=O)OCC(=O)c2ccccc2)C(C)C)CC1 (centres undefined) 2.67%
CCc1cnc2c(c1SCC(=O)c1ccccc1)c(=O)n(C)c(=O)n2C -2.22%
COc1ccc(-c2ccc(NS(=O)(=O)c3ccc(OC)c(OC)c3)cc2)nn1 1.87%
CCOc1sc2nc(C)n(CC(=O)Nc3cccc(C)c3)c(=O)c2c1C 1.19%
CCCCC(=O)N(c1ccc2oc(C)c(C(C)=O)c2c1)S(=O)(=O)c1ccc(F)cc1C -17.1%
COC(=O)c1ccccc1NC(=O)c1c(C)oc2ncn(C)c(=O)c12 0.0083%
COc1ccc(OCc2nc3ccccc3n2Cc2ccccc2Cl)cc1 1.61%
Cc1ccc(CNS(=O)(=O)c2cc3[nH]c(=O)c(=O)[nH]c3cc2C)cc1 -5.11%
Cc1cn2c(=O)cc(COc3ccccc3NC(=O)c3ccco3)nc2s1 -5.12%
Cc1ccc(S(=O)(=O)NC2(C(F)(F)F)C(=O)Nc3c2c(=O)[nH]c(=O)n3-c2ccccc2)cc1 (centres undefined) -2.53%
O=S(=O)(c1ccc(Br)cc1)c1nnn2c1nc(N1CCOCC1)c1sccc12 -1.75%
NC(=O)c1nc(-c2ccc(F)c(F)c2)nc2c1[nH]c(=O)n2-c1cccc(Cl)c1 -0.0187%
CCN1CCN(CCCNC(=O)c2cnn(-c3ccc(C)cc3C)c2C2CCN(C(=O)OC(C)(C)C)CC2)CC1 5.33%
O=C(COC(=O)c1cc(-c2ccccc2)nc2ccccc12)c1ccc(Br)cc1 -21.8%
Cc1ccc(C(=O)Nc2ccc3nc(SCC(=O)N4CCCc5ccccc54)sc3c2)cc1 -23.4%
CSc1nc2sc3c(c2c(=O)n1Cc1ccccc1)CCC(C(C)(C)C)C3 (centres undefined) 8.42%
CC(C)(C)NC(=O)N1CCC(C(=O)O)CC1 -0.273%
Cc1ccc(CNC(=O)Cc2ccc(NC(=O)N3CCSc4ncccc43)cc2)cc1 0.113%
CCc1ccccc1NC(=O)c1ccc2c(c1)nnn2C1CCCC1 0%
CCCNC(=O)c1ccc(Cn2c(=O)c3cccn3c3cccnc32)cc1 -0.356%
CCOc1ccccc1NC(=O)CN1C(=O)COc2ccc(S(=O)(=O)NC3CCCC3)cc21 1.13%
COCCCNC(=O)CCCn1c(=O)c2cccn2c2ccccc21 7.33%
COc1ccccc1CNC(=O)CCC1N=C2c3ccccc3N=C(SCc3ccc(Cl)cc3)N2C1=O (centres undefined) -3.99%
O=C1CCCc2cc(S(=O)(=O)NCC3CCC(C(=O)NCc4ccc(F)cc4)CC3)ccc2N1 (centres undefined) -1.75%
Cc1ccc(N2CCN(S(=O)(=O)c3ccc(Cl)c4ccccc34)CC2)c(C)c1 -3.15%
O=C(CSc1nnc(-c2cccc(F)c2)c(-c2cccc(F)c2)n1)NC1CCCCC1 -2.2%
O=C(Cn1ncc2c(=O)oc3ccccc3c21)N1CCN(c2ccc(Cl)cc2)CC1 -0.898%
COc1cccc(CSc2nc(-c3ccccc3F)nc3c2Cc2c(CO)cnc(C)c2O3)c1 -1.22%
COc1ccc(-n2nc3c(N4CCC(C(=O)NCCc5ccccc5)CC4)nnc(C)c3c2C)cc1 0.636%
COc1cc(Cl)c(C)cc1NC(=O)c1cnn(-c2ccc(F)cc2F)c1C1CCN(C(=O)OC(C)(C)C)CC1 -7.83%
COc1ccc2cc(CNc3ccc(C)cc3)c(=O)n(CC(=O)Nc3cccc(Cl)c3C)c2c1 -9%
CC(C)(C)c1ccc(C(=O)N(Cc2ccc(F)cc2)Cc2ccco2)cc1 -14.6%
Cc1ccc(-c2nnc(Nc3ccccc3)c3ccccc23)cc1S(=O)(=O)N1CCN(C)CC1 -11.8%
CCOC(=O)c1c(NC(=O)COc2ccccc2Br)sc2c1CCCCC2 -2.1%
COc1ccc(-c2nc(CSc3nnc(C)n4c3cc3oc(C)cc34)c(C)o2)cc1OC 3.36%
O=C(c1cccs1)N(Cc1cccnc1)c1nc2c(F)cc(F)cc2s1 -9.13%
CCn1cc2nc(SCc3ccc(F)cc3)n(CCc3ccccc3)c(=O)c2n1 4.28%
CCN(CCCNC(=O)c1ccc(Sc2ccc(Cl)cc2)c(NC(C)=O)c1)c1ccccc1 -9.8%
CCN(CC)S(=O)(=O)c1nnc(NC(=O)c2ccc(Br)cc2)s1 -0.0935%
Cc1cc(NC(=O)Cn2c(=O)oc3cc(S(=O)(=O)N4CCCC4)ccc32)ccc1Br -8.22%
COc1ccc(CCNC(=O)C2CCCN(S(=O)(=O)c3ccc4c(c3)oc(=O)n4C)C2)cc1OC (centres undefined) 2.35%
Cc1ccc(CNC(=O)CCc2cn(Cc3ccc(C)cc3)c3ccccc23)cc1 3.7%
CCOc1ccc(-c2cc3nc(C4CCN(C(=O)OC(C)(C)C)CC4)c(C(=O)Nc4c(C)cccc4C)cn3n2)cc1 0.36%
Cc1cc(C)c(Cn2c(=O)n(CCCCC(=O)NCc3ccccc3Cl)c(=O)c3ccccc32)c(C)c1 -1.88%
CCOC(=O)c1c(C)sc(-c2c(-c3cccc(Cl)c3)[nH]c3c2c(=O)n(C)c(=O)n3C)c1O -0.385%
COc1ccc(NC(=O)C2=C(C)Nc3ncnn3C2c2ccc[nH]2)cc1 (centres undefined) -0.0561%
Cc1c(C(=O)N(C)C)sc2c1c(=O)n(-c1ccc(F)cc1)c(=O)n2Cc1ccccc1C#N 0.536%
CCc1ccccc1N(C)S(=O)(=O)c1ccc2c(c1)C(C)(C)C(=O)N2C -3.79%
Fc1ccc2c(c1)-c1c(cnc3cc(-c4ccc(Cl)cc4)nn13)CO2 7.06%
CC(=O)N1CCc2cc(CNC(=O)Nc3ccc(Br)c(C)c3)ccc21 0.104%
COc1cccc(NC(=O)c2csnn2)c1 -6.56%
C=Cc1ccc(Cn2ccn(-c3ccc(F)c(F)c3)c(=O)c2=O)cc1 -4.54%
Cc1ccc(C(=O)Nc2ccc3[nH]c(=O)c(=O)[nH]c3c2)cc1 2.59%
CC(C)Oc1ccc(CNC(=O)Cn2c(-c3cccs3)cc3ccccc32)cc1 -9.99%
COc1cc(NC(=O)CC2C(=O)N(c3cccc(C)c3)C(=O)N2Cc2cccs2)cc(OC)c1 (centres undefined) -0.445%
Cc1ccc(C2CCN(C(=O)Nc3ccc(C)c(C)c3)C2)cc1 (centres undefined) 1.27%
COc1cccc(C(=O)Nc2ccc(S(=O)(=O)N(Cc3ccccc3)c3ccccc3)cc2)c1 -1.46%
CCS(=O)(=O)N1CCc2cc(C(=O)NCCc3ccc(OC)c(OC)c3)ccc21 -2.7%
Cc1cc(C)c(S(=O)(=O)NCCc2csc3nc(-c4ccc(Cl)cc4)nn23)c(C)c1 -3.17%
CC(=O)c1ccc(N2CCN(C(=O)C3CCN(S(=O)(=O)c4c(C)noc4/C=C/c4ccccc4F)CC3)CC2)cc1 -9.22%
Cc1ccc(C)c(N2CCN(c3nc4ccccc4c(=O)n3-c3ccccc3)CC2)c1 -13.5%
O=c1c2c3c(sc2n(Cc2ccc(F)cc2Cl)c(=O)n1-c1ccc(Cl)cc1)CCC3 0.349%
Cc1ccc(NC(=O)c2sc3ncnc(N(C)C4CCCCC4)c3c2C)cc1 -2.71%
Cc1ccccc1OCc1ccc(-c2nc(C#N)c(N3CCC(C(N)=O)CC3)o2)o1 -7.4%
CCOc1ccc2cc(-c3nnc(Nc4ccc(C)cc4)s3)c(=O)oc2c1 -8.06%
CC(=O)Nc1ccc(S(=O)(=O)NCCS(=O)(=O)N2CCN(c3ccccc3F)CC2)cc1 -3.11%
COc1cccc(Nc2nc3ccc(C(=O)c4ccccc4)cc3n3c(C)nnc23)c1 0.0108%
COc1ccc(NC(=O)c2ccc(NC(=O)CCS(=O)(=O)c3cccs3)cc2)cc1 -23.4%
CCOc1ccc2c(c1)c(=O)c(S(=O)(=O)c1ccc(Cl)cc1)cn2Cc1ccccc1C -17.2%
O=C(Nc1ccc(Cl)c(-c2nc3cc(Cl)ccc3o2)c1)c1cc2ccccc2o1 -4.62%
